Experimental data from the supplement of paper PMC8183993.
Structures can show the parent of a compound that is named as a salt. ± gives the standard deviation of the averaged measurements. In all, about 3,200 compounds were measured (“nuclei count (viability) relative to DMSO”: median about 99, lowest 2% from about 16 on). Some of the results follow.

What follows are compounds tested on U2OS (assay: nuclei count (viability) relative to DMSO (% of DMSO); higher = more viable cells). Details: 10 µM; 24 h.
Experimental: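 Primary image-based screen in U2OS cells: compounds at 10 uM for 24 h, then a 1 h o-propargyl-puromycin (OPP) pulse, click labelling, and high-throughput microscopy. Mean cytoplasmic OPP intensity and nuclei count were normalised to DMSO wells within each plate (DMSO = 100) and averaged over triplicate plates.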

Compound	nuclei count
O=C1c2ccccc2C(=O)c2c1ccc(O)c2O [Alizarin]	89.7
CC(/C=C1\SC(=S)N(CC(=O)O)C1=O)=C\c1ccccc1 [Epalrestat]	108
CCC(=O)OCN1C(=O)C=CC1=O	109
CCCOc1ccn2c(C(C)=O)cc(-c3ccccc3S(C)(=O)=O)c2c1	96.4
CN1CCN(CCCN2c3ccccc3Sc3ccc(Cl)cc32)CC1 [Prochlorperazine dimaleate]	85.7
CN(C)C[C@@H]1CCn2cc(c3ccccc32)C2=C(C(=O)NC2=O)c2cn(c3ccccc23)CCO1	88.1
Cc1nc(=O)c2cc(CN(C)c3ccc(C(=O)N[C@@H](CCC(=O)O)C(=O)O)s3)ccc2[nH]1 [Raltitrexed (Tomudex)]	95.8
CC(=O)[C@]1(O)Cc2c(O)c3c(c(O)c2[C@@H](O[C@H]2C[C@H](N)[C@H](O)[C@H](C)O2)C1)C(=O)c1ccccc1C3=O [Idarubicin HCl]	11.6
Cn1ccc2cc(NC(=O)Nc3cccnc3)ccc21	112
CS(=O)(=O)N1CCc2c(-c3cnc(N)nc3)nc(N3CCOCC3)nc21	81.3 ± 0.17
O=c1oc2ccccc2c(O)c1Cc1c(O)c2ccccc2oc1=O [Dicumarol]	103
O=C(O)COC(=O)Cc1ccccc1Nc1c(Cl)cccc1Cl [Aceclofenac]	102
c1ccc(CN2CCC3(CCc4ccccc43)CC2)cc1 [L-693,403 maleate]	102
C[C@@H]1C[C@H]2[C@@H]3CCC4=CC(=O)C=C[C@]4(C)[C@@]3(F)[C@@H](O)C[C@]2(C)[C@@]1(O)C(=O)CO [Dexamethasone]	105 ± 4.5
CC1(C)O[C@@H]2C[C@H]3[C@@H]4CCC5=CC(=O)C=C[C@]5(C)[C@@]4(F)[C@@H](O)C[C@]3(C)[C@]2(C(=O)CO)O1 [Triamcinolone Acetonide]	108
N=C(N)SCCc1c[nH]cn1 [Imetit dihydrobromide]	93.3
COc1cc(O)cc(O)c1C(=O)/C=C/c1ccccc1 [Cardamonin]	84.8
CC(C)NCC(O)COc1ccc(CC(N)=O)cc1 (racemic) [(RS)-Atenolol]	65.9
Cc1cnc(NC(=O)C2=C(O)c3ccccc3S(=O)(=O)N2C)s1 [Meloxicam]	103
O=C(O)CCCc1ccccc1 [sodium 4-Phenylbutyrate]	108
CC1CC(OC(=O)C(O)c2ccccc2)CC(C)(C)N1C (centres undefined) [Eucatropine hydrochloride]	107
COc1ccccc1S(=O)(=O)Nc1ccc2c(c1)CN(C)C(=O)N2	91.1 ± 1.5
c1cc2c(cc1C1CCCCC1)c1c3n2CCNC3CCC1 (centres undefined) [Tetrindole mesylate]	75.8
CCN1CCC[C@H]1CNC(=O)c1c(OC)ccc(Br)c1OC [Remoxipride Hydrochloride]	91.9
CCN1CCC[C@H]1CNC(=O)c1c(OC)ccc(Br)c1OC [Remoxipride hydrochloride]	90.6

Compound	nuclei count
CCN1CCN(c2cc3c(cc2F)c(=O)c(C(=O)O)cn3C2CC2)CC1 [Enrofloxacin]	107
FC(F)c1nc2ccccc2n1-c1nc(N2CCOCC2)nc(N2CCOCC2)n1	106
Cc1nnc(NS(=O)(=O)c2ccc(N)cc2)s1 [Sulfamethizole]	101
N=C(N)S/C=C\C(=O)O [ZAPA sulphate]	103
CN(C)c1ccc(/C=C2/C(=O)Nc3ccccc32)cc1	84.7
CNC(=O)[C@H](Cc1c[nH]c2ccccc12)NC(=O)[C@@H](CC(=O)NO)CC(C)C	99.7
C[C@H]1C[C@H]2[C@@H]3CCC4=CC(=O)C=C[C@]4(C)[C@@]3(F)[C@@H](O)C[C@]2(C)[C@@]1(O)C(=O)CO [Betamethasone (Celestone)]	106
C[C@H]1C[C@H]2[C@@H]3CCC4=CC(=O)C=C[C@]4(C)[C@@]3(F)[C@@H](O)C[C@]2(C)[C@@]1(O)C(=O)CO [Betamethasone]	102
CCCC(CCC)C(=O)NO [Valproic acid hydroxamate]	95.7
Cc1cc(/C(=C/Nc2ccc(Cl)cc2)C(=O)Nc2ccc(Cl)cc2)on1	102
Oc1ccc(OCc2ccccc2)cc1 [Monobenzone]	73.5
Cc1cc(Nc2ncnc3ccc(-c4ccc(CNCCS(C)(=O)=O)o4)cc23)ccc1Oc1ccn2ncnc2c1 [HER2 Inhibitor 1]	92.5
CC(C(=O)O)c1ccc(N2Cc3ccccc3C2=O)cc1 (centres undefined) [Indoprofen]	106
CC1=Nc2ccc(Cl)cc2S(=O)(=O)N1 [Diazoxide]	96.7 ± 7.7
O=C(NCCO[N+](=O)[O-])c1cccnc1 [Nicorandil]	106 ± 3.6
Cc1ccc(Cl)c(Nc2ccccc2C(=O)O)c1Cl [Meclofenamic acid sodium salt monohydrate]	103
C=C1/C(=C\C=C2/CCC[C@]3(C)[C@@H]([C@H](C)/C=C/[C@@H](O)C4CC4)CC[C@@H]23)C[C@@H](O)C[C@@H]1O [Calcipotriol]	87.7
C=C1/C(=C\C=C2/CCC[C@]3(C)[C@@H]([C@H](C)/C=C/[C@@H](O)C4CC4)CC[C@@H]23)C[C@@H](O)C[C@@H]1O [Calcipotriene]	99.6
COC(=O)Nc1nc2ccc(SC(C)C)cc2[nH]1 [Methiazole]	27.1
COC(=O)C1=C(C)NC(C)=C(C(=O)OCCCN2CCC(c3ccccc3)(c3ccccc3)CC2)[C@H]1c1cccc([N+](=O)[O-])c1 [Niguldipine]	42.7 ± 30
COC(=O)C1=C(C)NC(C)=C(C(=O)OCCCN2CCC(c3ccccc3)(c3ccccc3)CC2)[C@H]1c1cccc([N+](=O)[O-])c1 [(S)-(+)-Niguldipine hydrochloride]	73.5
COC(=O)C1=C(C)NC(C)=C(C(=O)OCCCN2CCC(c3ccccc3)(c3ccccc3)CC2)[C@H]1c1cccc([N+](=O)[O-])c1 [S-(+)-Niguldipine hydrochloride]	59.3
CN(C)CCOc1ccc(/C(=C(/CCCl)c2ccccc2)c2ccccc2)cc1 [Toremifene]	98.9
CCN1CCN(C(=O)N[C@@H](C(=O)N[C@@H]2C(=O)N3C(C(=O)O)=C(CSc4nnnn4C)CS[C@H]23)c2ccc(O)cc2)C(=O)C1=O [Cefoperazone dihydrate]	94.4
CCOc1nc2cccc(C(=O)O)c2n1Cc1ccc(-c2ccccc2-c2noc(=O)[nH]2)cc1 [Azilsartan (TAK-536)]	95.9

Compound	nuclei count
COCCOC(=O)C1=C(C)NC(C)=C(C(=O)OC/C=C/c2ccccc2)C1c1cccc([N+](=O)[O-])c1 (centres undefined) [Cilnidipine]	92.6 ± 4.8
CCCCNc1ccc(C(=O)OCCOCCOCCOCCOCCOCCOCCOCCOCCOC)cc1 [Benzonatate]	98.3
Cc1cc([C@@H](C)Nc2ccccc2C(=O)O)c2nc(N3CCOCC3)cc(=O)n2c1	98.4
O=C1c2ccccc2C(Cc2ccnc(F)c2)(Cc2ccnc(F)c2)c2ccccc21	110
Cc1cc(/C=C/c2ccc3cc(N(C)C)ccc3[n+]2C)c(C)n1-c1ccccc1 [Pyrvinium pamoate]	6.32
CCCCN1CCC(CCC(=O)c2cc(Cl)c(N)cc2OC)CC1	107
CCn1nc(C(=O)O)c(=O)c2cc3c(cc21)OCO3 [Cinoxacin]	104
O=c1c(-c2ccc(O)cc2)coc2c([C@@H]3O[C@H](CO)[C@@H](O)[C@H](O)[C@H]3O)c(O)ccc12 [Puerarin (Kakonein)]	105
CNC(=O)c1cc(COc2nnc(Nc3ccc(Cl)cc3)c3ccoc23)ccn1 [Telatinib (BAY 57-9352)]	102
CCCc1nc(C)c2c(=O)nc(-c3cc(S(=O)(=O)N4CCN(CC)CC4)ccc3OCC)[nH]n12 [Vardenafil Hydrochloride Trihydrate (Vivanza)]	103
CCCc1nc(C)c2c(=O)nc(-c3cc(S(=O)(=O)N4CCN(CC)CC4)ccc3OCC)[nH]n12 [Vardenafil]	99.1
O=C(O)/C=C/c1ccc(Cn2ccnc2)cc1 [Ozagrel hydrochloride]	103 ± 8.9
COc1cc2nccc(Oc3ccc(NC(=O)C4(C(=O)Nc5ccc(F)cc5)CC4)cc3)c2cc1OC [Cabozantinib malate]	59
COc1cc2nccc(Oc3ccc(NC(=O)C4(C(=O)Nc5ccc(F)cc5)CC4)cc3)c2cc1OC [XL-184 free base (Cabozantinib)]	51.5
CCn1ccnc1CC1COc2ccccc2O1 (centres undefined) [Imiloxan hydrochloride]	103
CNC(C)C1CCC(N)C(OC2C(N)CC(N)C(OC3OCC(C)(O)C(NC)C3O)C2O)O1 (centres undefined) [Gentamycin sulfate (Gentacycol)]	79.5
Cc1c(F)cc(C(=O)NC2CC2)cc1-c1ccc(C(=O)NCC(C)(C)C)cn1 [Losmapimod]	91.4
COc1ccc(S(=O)(=O)N(C(C)=O)c2ccccc2/C=C/c2cc[n+]([O-])cc2)cc1	22.85 ± 0.22
CC[C@H]1OC(=O)[C@H](C)[C@@H](O[C@H]2C[C@@](C)(OC)[C@@H](O)[C@H](C)O2)[C@H](C)[C@@H](O[C@@H]2O[C@H](C)C[C@H](N(C)C)[C@H]2O)[C@](C)(O)C[C@@H](C)[C@@H]2N[C@@H](COCCOC)O[C@H]([C@H]2C)[C@]1(C)O [Dirithromycin]	102
O=C1CC2(CCCC2)CC(=O)N1CCCCN1CCN(c2ncccn2)CC1 [Buspirone hydrochloride]	101 ± 6.5
CC(C)c1cc(-c2ccc(F)c3ccccc23)nc(N)n1	101
O=C(NOC[C@H](O)CO)c1ccc(F)c(F)c1Nc1ccc(I)cc1F	95.8
Cc1cc(C)c(/C=C2\C(=O)Nc3ccccc32)[nH]1	107
Cc1cc(C)c(/C=C2\C(=O)Nc3ccccc32)[nH]1 [Semaxanib (SU5416)]	100
